From the supplement of paper PMC11417369
The other results are listed elsewhere or left out.

test system: PfSIP2 AP2 domain 1 (GST-tagged); test: gcPBM binding intensity (ln(normalized median fluorescence intensity)); higher = stronger DNA binding
In short: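 Binding of GST-tagged P. falciparum DNA-binding domains, expressed in E. coli and used at about 25 μg on average, was carried out for 1 h in 1× PBS containing 1% milk, 0.2 mg/ml BSA, 0.5% salmon testes DNA and 0.03% Triton X-100. The target was an Agilent 4 × 180k array of primer-extended double-stranded 36-bp intergenic genomic probes plus negative controls, read with Alexa488 anti-GST antibody at 488 nm. Binding intensity is the highest Masliner-normalised natural-log median intensity across replicate spots of either probe orientation.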

Q: With “ATTACAACCACATTGACATGCAAATGTAGAGGGGGA [TGCATGCA_site694]” as the sequence, how does the “gcPBM binding intensity (ln)” value read?
A: 8.02

Q: For “TGTCACCTATTTTTTTGTACGTATGTCCATTTTTTT [XGTACX_site4368]”, which “gcPBM binding intensity (ln)” value is on record?
A: 7.11

Q: “TTTATGTAATATACATGTACAGAATATAAAATATAT [XGTACX_site6906]” was tested. Which “gcPBM binding intensity (ln)” value did it give?
A: 7.17

Q: For “AAAAAATATAGATGCACACACAAAAAAACAAATTAA [CACACA_site6718]”, which “gcPBM binding intensity (ln)” value is on record?
A: 7.57

Q: Which “gcPBM binding intensity (ln)” value does the source give for “TTAACTTCTTTAAAATGTACATATATTAAATAATAA [XGTACX_site3391]” here?
A: 7.05

Q: “TATTCTTACATCACCTCACACATTTAATATTCCTTA [CACACA_site4693]” was tested. Which “gcPBM binding intensity (ln)” value did it give?
A: 7.18

Q: With “GTATTATTATTTTATGCATGTACATTGAATTATATT [TGCATGCA_site34]” as the sequence, how does the “gcPBM binding intensity (ln)” value read?
A: 7.2

Q: “AGATTTTGAAATTATAAAAAAATTTCACTTCATTTA [CACACA_negctrl_site888]” was tested. Which “gcPBM binding intensity (ln)” value did it give?
A: 6.4

Q: How did the “gcPBM binding intensity (ln)” value turn out when “ATATATATATATCAGAGTACATTCTTTAAAATATAT [XGTACX_site5915]” was run?
A: 9.3

Q: With “ATTGTTTTGTAATATGAAAAAATTGTGTAATGTGTC [CACACA_negctrl_site1510]” as the sequence, how does the “gcPBM binding intensity (ln)” value read?
A: 7.61

Q: For “TATTATATTATACATACACACCCATATAATATGTTT [CACACA_site8191]”, which “gcPBM binding intensity (ln)” value is on record?
A: 7.12

Q: With “AAATTCGTAATAATGTGTACATAACTATACATAATT [XGTACX_site1717]” as the sequence, how does the “gcPBM binding intensity (ln)” value read?
A: 7.08

Q: “AAAAAATAGAATATGGGTACTAAAAAGATACAAACA [XGTACX_site4464]” was tested. Which “gcPBM binding intensity (ln)” value did it give?
A: 7.09

Q: With “ATTTATATGAAAATATGTACTTATATAAATTTATTT [XGTACX_site53]” as the sequence, how does the “gcPBM binding intensity (ln)” value read?
A: 7.04

Q: Which “gcPBM binding intensity (ln)” value does the source give for “TATGGAACACACCTTAATATGTGATAAAATATGATA [GTGCAC_negctrl_site718]” here?
A: 6.74

Q: For “GTTATTAAATAATTCACACACATATATATATATATA [CACACA_site2260]”, which “gcPBM binding intensity (ln)” value is on record?
A: 9.61

Q: With “TATTCCTATATACAGCGTACAAAAAATAATATGTAT [XGTACX_site8112]” as the sequence, how does the “gcPBM binding intensity (ln)” value read?
A: 7.12

Q: With “CGCAACGTGAAAATACGTACACATACATTTTTATAT [XGTACX_site330]” as the sequence, how does the “gcPBM binding intensity (ln)” value read?
A: 7.03

Q: Which “gcPBM binding intensity (ln)” value does the source give for “AAATATTATGTACGCACACACATTTTTGATATATAA [CACACA_site7755]” here?
A: 7.36

Q: For “TAATCGTTTTATAAATGTACAAAATTGTTATGTTAT [XGTACX_site5147]”, which “gcPBM binding intensity (ln)” value is on record?
A: 6.93

Q: Which “gcPBM binding intensity (ln)” value does the source give for GGGGGAAGGTTGAAGGTGCTTGATGGAGAAAAATAT here?
A: 9.43

Q: For “TTAATACATACATTCACACACACTAAATGTATATTT [CACACA_site4105]”, which “gcPBM binding intensity (ln)” value is on record?
A: 6.99

Q: How did the “gcPBM binding intensity (ln)” value turn out when “AATAGGATATGGTACATTTTTTGTATACTTTTTGTT [CACACA_negctrl_site1804]” was run?
A: 6.74

Q: How did the “gcPBM binding intensity (ln)” value turn out when “AAACAAGTAATTGTTATTATTATTATATTATTATTA [CACACA_negctrl_site402]” was run?
A: 6.82
